The list shows a part of the results. Values were computed here from the reads of four pooled replicates and scatter widely.
These sequences were tested against T1, Pho4 (S. cerevisiae) (UniProt P07270) (assay: relative binding free energy (BET-seq); higher = weaker binding). Conditions: reference: library average.
T1 sequence: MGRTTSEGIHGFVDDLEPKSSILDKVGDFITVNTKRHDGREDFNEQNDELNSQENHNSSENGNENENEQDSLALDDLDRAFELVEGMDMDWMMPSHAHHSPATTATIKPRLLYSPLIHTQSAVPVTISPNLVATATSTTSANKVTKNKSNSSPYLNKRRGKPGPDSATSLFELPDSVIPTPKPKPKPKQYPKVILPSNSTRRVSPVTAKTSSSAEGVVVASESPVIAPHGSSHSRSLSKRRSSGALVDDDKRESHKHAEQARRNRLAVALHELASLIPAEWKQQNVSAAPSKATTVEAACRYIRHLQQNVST

Sequence | relative binding free energy
GGTCACACGTGTAGGG | 0.21 kcal/mol
CTCGTCACGTGTAAGG | 0.1 kcal/mol
ATAGTCACGTGGAGGG | 0.06 kcal/mol
TTATTCACGTGAAGTG | 0.36 kcal/mol
CGTGACACGTGGTGAT | -0.15 kcal/mol
GAGTTCACGTGTGTTC | 0.38 kcal/mol
GGCTCCACGTGTAGGT | 0.15 kcal/mol
TTGCGCACGTGGTGCG | -0.07 kcal/mol
AGTGTCACGTGCGGGG | -0.08 kcal/mol
TTTGACACGTGGCTGA | 0 kcal/mol
CTTTGCACGTGGCTTG | 0.04 kcal/mol
ATAATCACGTGTAGTG | 0.05 kcal/mol
ATTTGCACGTGCTGCG | -0.02 kcal/mol
TCTCGCACGTGTGGGT | -0.02 kcal/mol
GGTGGCACGTGCAAGA | -0.02 kcal/mol
TCAATCACGTGGGTAT | -0.06 kcal/mol
GGGGGCACGTGCTTGA | -0.21 kcal/mol
TAAGGCACGTGTTTGT | -0.02 kcal/mol
GGATGCACGTGTCGTT | 0.1 kcal/mol
AGGCTCACGTGACTGG | 0.35 kcal/mol
AGTTGCACGTGGGTTG | -0.3 kcal/mol
GGCGCCACGTGGGGAG | -0.21 kcal/mol
AGTGGCACGTGGGCTA | -0.24 kcal/mol
TGGTGCACGTGCTTTG | -0.08 kcal/mol
GATATCACGTGTAAGG | 0.37 kcal/mol
TATATCACGTGGCGGC | 0.11 kcal/mol

Sequence | relative binding free energy
GAAGTCACGTGAGAGG | 0.24 kcal/mol
ACAGTCACGTGGCGGG | 0.08 kcal/mol
TTTTACACGTGGAGGA | 0.12 kcal/mol
TAAGGCACGTGTCGTA | -0.19 kcal/mol
ATAGGCACGTGTTAAT | -0.24 kcal/mol
CTAGGCACGTGTGAAT | 0.13 kcal/mol
TCATACACGTGGTTGA | 0.11 kcal/mol
TAATACACGTGGTCGT | -0.11 kcal/mol
GTTGGCACGTGTGGAC | -0.06 kcal/mol
CGGTGCACGTGTAGAT | 0.12 kcal/mol
TCGGTCACGTGATTTG | 0.17 kcal/mol
TAGATCACGTGTTGCT | 0.11 kcal/mol
TTTGACACGTGGGGTA | -0.18 kcal/mol
TTTGGCACGTGGGCTT | -0.17 kcal/mol
TTTCTCACGTGTAGTT | 0.24 kcal/mol
GGGGTCACGTGACCGG | 0.11 kcal/mol
TAAGGCACGTGGCGTC | -0.08 kcal/mol
GCGTTCACGTGGAAGG | 0.32 kcal/mol
TTGACCACGTGGTATT | -0.09 kcal/mol
GTATTCACGTGAAGGG | 0.27 kcal/mol
GGGTTCACGTGGTGCC | 0.28 kcal/mol
GCGTGCACGTGGTCGG | 0.02 kcal/mol
TTCTACACGTGGGTGA | -0.13 kcal/mol
AGTTGCACGTGCGTGG | -0.1 kcal/mol
GGCCTCACGTGGTTAT | 0.27 kcal/mol
TGTGACACGTGTGGGG | 0.11 kcal/mol

Sequence | relative binding free energy
CGTAACACGTGTGGTG | 0.11 kcal/mol
TAGTACACGTGCGGTG | 0.02 kcal/mol
AGTTACACGTGGAGTT | 0.05 kcal/mol
TATGGCACGTGTGTTT | 0.06 kcal/mol
ATGTGCACGTGCTTTG | -0.13 kcal/mol
GAATGCACGTGTGTGT | 0.18 kcal/mol
TGGTACACGTGATGAT | 0.18 kcal/mol
CGGCTCACGTGGTTGG | 0.21 kcal/mol
AGCAGCACGTGGGTGC | -0.12 kcal/mol
TTGCGCACGTGGGTTT | -0.24 kcal/mol
GCGGACACGTGAGGTA | 0.47 kcal/mol
AGCTTCACGTGTTGTC | 0.32 kcal/mol
TTGCACACGTGTATGG | -0.04 kcal/mol
GCGTGCACGTGTGGAA | 0.04 kcal/mol
TTGGTCACGTGAGTAT | 0.38 kcal/mol
GGGGGCACGTGGTGTA | -0.09 kcal/mol
GTCTGCACGTGAGGGA | 0.44 kcal/mol
AGTAACACGTGTAAGT | 0.06 kcal/mol
GGTGCCACGTGTTGGT | 0.07 kcal/mol
TAGTTCACGTGGGCAA | 0.28 kcal/mol
CGTTGCACGTGTATGG | -0.09 kcal/mol
GGGGTCACGTGTCCGG | 0.23 kcal/mol
AGGTTCACGTGTTCGC | 0.26 kcal/mol
ATGAACACGTGGTGGC | 0.08 kcal/mol
TTTTTCACGTGTCGGA | 0.38 kcal/mol
TTTATCACGTGGGGTG | -0.03 kcal/mol

Sequence | relative binding free energy
AGATGCACGTGGATTG | 0.02 kcal/mol
ATGGACACGTGATATG | 0.14 kcal/mol
TTTTGCACGTGCTAAG | 0.04 kcal/mol
ACGGGCACGTGGGGTA | -0.23 kcal/mol
ATGCTCACGTGAGTGA | 0.44 kcal/mol
AGCGGCACGTGGGTCG | -0.25 kcal/mol
GATTACACGTGTGGAA | 0.25 kcal/mol
AGTTCCACGTGGAGTT | 0.08 kcal/mol
GCGTCCACGTGGTGGT | 0.03 kcal/mol
TAGGGCACGTGTATGT | -0.03 kcal/mol
GATGCCACGTGATGGT | 0.15 kcal/mol
TGGATCACGTGCTTAG | 0.07 kcal/mol
GTAAGCACGTGCTGTA | -0.08 kcal/mol
TATTTCACGTGTCGAG | 0.19 kcal/mol
AAATACACGTGTGGTA | 0.04 kcal/mol
AGTTTCACGTGGTGTC | 0.21 kcal/mol
AGTGGCACGTGAACGT | 0.02 kcal/mol
AAACTCACGTGTTGAT | 0.38 kcal/mol
ACATGCACGTGGTGTG | -0.26 kcal/mol
TGTTGCACGTGTAACT | 0.16 kcal/mol
AAATTCACGTGGTTTG | 0.2 kcal/mol
GGAAGCACGTGGGTTC | -0.06 kcal/mol
AGGGGCACGTGCAGGT | -0.19 kcal/mol
AGACTCACGTGTGTTT | 0.27 kcal/mol
AAGAGCACGTGTTTTA | 0 kcal/mol
AACGGCACGTGATGGT | 0.02 kcal/mol

Sequence | relative binding free energy
CTTATCACGTGCTTGT | 0.02 kcal/mol
GGCGACACGTGCTGGG | 0.21 kcal/mol
ATGAGCACGTGTGTGC | -0.24 kcal/mol
TCTGGCACGTGAAGAG | 0.22 kcal/mol
ATAGTCACGTGTTTGT | -0.03 kcal/mol
TGCCACACGTGTAGGG | 0.13 kcal/mol
CGGTGCACGTGAGATG | 0.29 kcal/mol
AGATACACGTGGGAGT | -0.03 kcal/mol
TACATCACGTGTGTGA | 0.2 kcal/mol
TTATGCACGTGGCTGT | -0.16 kcal/mol
AGGGTCACGTGGCACA | 0.1 kcal/mol
TGTCACACGTGGCAGG | 0.04 kcal/mol
GGTGACACGTGGCGGA | 0.03 kcal/mol
AAGCTCACGTGGTTTG | 0.27 kcal/mol
CTGATCACGTGTGTGG | 0.1 kcal/mol
CATGACACGTGGGATG | -0.08 kcal/mol
TTGTTCACGTGGGGAG | 0.2 kcal/mol
CTAGGCACGTGGAGTA | -0.01 kcal/mol
AGTGCCACGTGCTGTT | -0.04 kcal/mol
TATACCACGTGTGTTT | -0.1 kcal/mol
GCTTTCACGTGATAAG | 0.53 kcal/mol
CGTGTCACGTGGATGT | 0.06 kcal/mol
TAATTCACGTGTGCGT | 0.26 kcal/mol
CGGTGCACGTGTTATT | 0 kcal/mol
TGTGACACGTGAGGTA | 0.19 kcal/mol
TATATCACGTGGGACG | 0.06 kcal/mol

Sequence | relative binding free energy
CTAGGCACGTGATTTA | -0.03 kcal/mol
GTTGACACGTGTAGTT | 0.17 kcal/mol
TGTGACACGTGTGCTA | -0.05 kcal/mol
GGTGGCACGTGTTAAA | -0.03 kcal/mol
GGTAGCACGTGAAGAT | 0.23 kcal/mol
TAATTCACGTGCGGGT | 0.19 kcal/mol
TTTTTCACGTGTACGA | 0.41 kcal/mol
CGCTGCACGTGGGGTA | -0.27 kcal/mol
AGATTCACGTGTCGTT | 0.25 kcal/mol
TTAGACACGTGAGGGC | 0.28 kcal/mol
GTACGCACGTGATGGG | -0.04 kcal/mol
GGTTACACGTGCCGGG | 0.14 kcal/mol
TGAGGCACGTGGGGGC | -0.22 kcal/mol
CAGTTCACGTGGGGTG | 0.17 kcal/mol
CGGTTCACGTGGTAGT | 0.33 kcal/mol
GGTGCCACGTGTGGTG | -0.06 kcal/mol
GTTATCACGTGCGTTA | 0.14 kcal/mol
ATCAGCACGTGGTTTA | -0.16 kcal/mol
GGTATCACGTGCAAGG | 0.14 kcal/mol
GTTTACACGTGTTCGA | 0.16 kcal/mol
TGTTACACGTGAAATA | 0.5 kcal/mol
TGTAGCACGTGAGCAG | 0.2 kcal/mol
TGTGGCACGTGTGATC | -0.02 kcal/mol
AGGGACACGTGCGGGA | -0.08 kcal/mol
TAAGTCACGTGGGGCC | -0.02 kcal/mol
GATTGCACGTGCGGTT | 0.04 kcal/mol

Sequence | relative binding free energy
GGTTCCACGTGCGGGA | 0.05 kcal/mol
TGTTCCACGTGAATTG | 0.2 kcal/mol
TTGGACACGTGTACGT | 0.15 kcal/mol
TATAACACGTGTTGAA | 0.07 kcal/mol
AGTATCACGTGGGTCC | 0.11 kcal/mol
CGGATCACGTGTTGAG | 0.15 kcal/mol
GGGCCCACGTGGGGCG | -0.29 kcal/mol
TGACTCACGTGGTTTT | 0.1 kcal/mol
TATCTCACGTGGTAGA | 0.14 kcal/mol
GTGTGCACGTGTCAAG | -0.05 kcal/mol
GGTAACACGTGGTGTT | 0.07 kcal/mol
GTGTGCACGTGTAAGT | 0.14 kcal/mol
TTTGGCACGTGCGAGC | -0.11 kcal/mol
GTTGGCACGTGCGCTG | -0.24 kcal/mol
ATGGGCACGTGGGTTA | -0.2 kcal/mol
TGTAACACGTGCTTTA | -0.05 kcal/mol
TGAAACACGTGTGCGG | -0.05 kcal/mol
CGGTGCACGTGGGTTT | -0.11 kcal/mol
GCGGTCACGTGGGTGC | 0.1 kcal/mol
TTGTACACGTGGGGTA | -0.03 kcal/mol
TTGCACACGTGGGGGC | -0.14 kcal/mol
TAACTCACGTGTTGTG | 0.15 kcal/mol
TTATGCACGTGAGGGT | 0.17 kcal/mol
GCATGCACGTGGCGTG | -0.13 kcal/mol
GCGGCCACGTGTTGGG | 0.03 kcal/mol
ACGTTCACGTGTTTTT | 0.29 kcal/mol

Sequence | relative binding free energy
GGCAACACGTGGGGAG | -0.06 kcal/mol
AGGTGCACGTGTGTTA | 0.01 kcal/mol
TAGGCCACGTGGGGCG | -0.21 kcal/mol
TGAACCACGTGTTTGT | -0.15 kcal/mol
TGCGTCACGTGTGCTT | -0.03 kcal/mol
CGTTTCACGTGATGGC | 0.27 kcal/mol
GGAAGCACGTGATTAG | 0.15 kcal/mol
TGGGGCACGTGGGCCG | -0.3 kcal/mol
AGGTCCACGTGGCGGT | -0.12 kcal/mol
GTCTTCACGTGGAAGT | 0.33 kcal/mol
GGTATCACGTGTTGGA | 0.12 kcal/mol
AGAGTCACGTGTATGG | 0.19 kcal/mol
TGAGGCACGTGCGAGA | -0.05 kcal/mol
TAGGGCACGTGAGCCT | 0.23 kcal/mol
TAGGGCACGTGAAGAG | 0.07 kcal/mol
TTTTACACGTGGATAA | 0.05 kcal/mol
CTGGTCACGTGGGTTC | -0.14 kcal/mol
AGGTGCACGTGAGTAC | 0.17 kcal/mol
ATTTACACGTGTGAGT | 0.19 kcal/mol
GGACCCACGTGTGGGG | -0.07 kcal/mol
GTAGTCACGTGAATTG | 0.25 kcal/mol
TTTGGCACGTGTTCTT | -0.13 kcal/mol
CGGCGCACGTGGAGTT | -0.08 kcal/mol
ATGTCCACGTGAGGTT | 0.37 kcal/mol
TGTGTCACGTGAGACG | 0.27 kcal/mol
ACGGTCACGTGTAGAG | 0.21 kcal/mol

Sequence | relative binding free energy
GCTGTCACGTGGTAAT | 0.21 kcal/mol
AATGTCACGTGTATTT | 0.11 kcal/mol
TGTGGCACGTGAAGGC | 0.15 kcal/mol
ATGTACACGTGTTTCG | 0.19 kcal/mol
AGGCACACGTGGGTGC | -0.18 kcal/mol
AGTGGCACGTGTCACG | -0.12 kcal/mol
TAGTACACGTGGGAAA | 0.07 kcal/mol
GGGGGCACGTGGGATT | -0.01 kcal/mol
GTTGACACGTGGCGGG | 0.07 kcal/mol
AGCTTCACGTGTCGGT | 0.18 kcal/mol
TTGATCACGTGAGTAG | 0.31 kcal/mol
GTGTGCACGTGAGAGT | 0.17 kcal/mol
TGCTGCACGTGTTAAT | 0.16 kcal/mol
ATTGTCACGTGTGGGC | 0.07 kcal/mol
ATATGCACGTGGGTGT | -0.19 kcal/mol
TGTAACACGTGTGCAG | 0.01 kcal/mol
TCTATCACGTGTTGGG | 0.13 kcal/mol
CAGGACACGTGGTGGG | 0.02 kcal/mol
TTTTACACGTGCAATT | 0.02 kcal/mol
TATATCACGTGGCGTT | 0.08 kcal/mol
TGCTGCACGTGGATTT | 0.03 kcal/mol
CCTGGCACGTGTTGGT | -0.11 kcal/mol

Source: the BET-seq Pho4 binding data (Le et al. 2018)
